Reference: PubChem BioAssay AID1346428 (National Center for Advancing Translational Sciences (NCATS), 2018)
Values joined by “and” are separate entries in the source; they are usually repeats but may differ in a detail not shown here. Equal values may be shown once. The campaign covered roughly 48,000 compounds. About 1,200 (2.5%) were called active. Roughly 2% stayed inconclusive and do not appear here.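 How the source made its calls: active means activation of at least 60% and not above a set upper limit (about 1 call in 100 departs from these limits); inconclusive means activation of 40% to 60%, or above that upper limit; inactive means activation under 40%.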 The list shows a part of the results.

target: Probable G-protein coupled receptor 32 (Homo sapiens) (UniProt O75388); assay: qHTS for Agonists of Human Resolvin D1 Receptor DRV1; conditions: CHO-K1 GPR32 beta-arrestin PathHunter luminescence, 90 min; at 76.9 µM; hits give high values; zero percent set by DMSO-only wells; further: 0% is about no effect
Summary of the method: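 Agonism was scored by beta-Gal fragment complementation (chemiluminescent read, 1 h detection at ambient temperature) reporting beta-arrestin binding to GPR32 in engineered CHO-K1 cells. Compound treatment lasted 90 min at 37 C, normalized to a DMSO basal control.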

Chain of UniProt O75388 (O75388 whole entry, looked up, the tested form may be a part): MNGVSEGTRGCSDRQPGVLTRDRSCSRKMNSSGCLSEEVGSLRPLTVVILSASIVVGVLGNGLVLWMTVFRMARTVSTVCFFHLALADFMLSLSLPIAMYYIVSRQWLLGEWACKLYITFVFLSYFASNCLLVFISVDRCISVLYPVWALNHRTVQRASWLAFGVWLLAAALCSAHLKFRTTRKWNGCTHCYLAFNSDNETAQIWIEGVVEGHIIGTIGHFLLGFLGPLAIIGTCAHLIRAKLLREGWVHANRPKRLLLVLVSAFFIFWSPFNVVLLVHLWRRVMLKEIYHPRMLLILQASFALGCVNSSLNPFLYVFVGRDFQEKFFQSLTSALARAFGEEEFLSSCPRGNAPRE

activation, active:
CCOC(=O)CSc1nc2ccc(NC(=O)COc3ccccc3C)cc2s1 75.2%

activation, inactive:
COc1ccc(Nc2oc(/C=C/c3ccc(OC)c(OC)c3)nc2C#N)cc1 -13.7%, COCCn1c(=O)[nH]c2cc(C(=O)Nc3cccc(C(C)=O)c3)ccc2c1=O 0.602%, CCCn1c(CCC(=O)Nc2ccccc2OC)nc2cccnc21 -5.7%, Cc1cc(C)cc(-n2ccn(Cc3ccc(F)cc3)c(=O)c2=O)c1 -31.6%, CCOc1ccc(S(=O)(=O)NCCc2sc3nc(-c4ccc(C)cc4)nn3c2C)cc1 -2.75%, Cc1cccc(C)c1Nc1c(-c2ccc(O)cc2)nc2sccn12 -1.51%, O=c1c2sc3ccccc3c2n(Cc2cccc(C(F)(F)F)c2)c(=O)n1Cc1ccc(F)cc1 10.3%, O=c1oc2ccccc2cc1-c1cn2cc(Cc3ccc(Br)cc3)sc2n1 -5.3%, COc1ccc2oc(-c3cccc(NC(=O)c4sc5c([N+](=O)[O-])cccc5c4Cl)c3)nc2c1 -1.35%, COc1ccc(NC(=O)CC2C(=O)N(c3cccc(OC)c3)C(=O)N2Cc2ccc3c(c2)OCO3)cc1 (configuration not stated) 30.3%, COc1cccc2c1C(=O)c1c(O)c3c(c(O)c1C2=O)C[C@@](O)(C(=O)CO)C[C@@H]3O[C@H]1C[C@H](N)[C@H](O[C@@H]2CCCCO2)[C@H](C)O1 -36.5%, Cc1ccc(-c2cn(-c3ccc(Cl)cc3)c(S(=O)(=O)CC(=O)Nc3ccccc3)n2)cc1 -19.4%, Cc1ccc(Cn2c(SCc3ccc(C(=O)NC4CCCC4)cc3)nc3ccncc32)cc1 17.8%, CCn1c(=O)cc(OCC(=O)Nc2ccc(C)c(F)c2)c2ccccc21 5.53%, O=c1oc2ccccc2cc1-c1cn2cc(Cc3ccccc3F)sc2n1 -1.63%, Cc1nn(-c2ccccc2)c(OC(=O)C(C)(C)C)c1Sc1ccccc1 -14.5%, CC(C)OC(=O)c1cc(C(=O)OC(C)C)cc([N+](=O)[O-])c1 7.92%, Cc1ccc2nc(NCCc3ccccc3)c3nncn3c2c1 -1.77%, COCCn1c(=N)c(C(=O)NCc2ccco2)cc2c(=O)n3cc(C)ccc3nc21 -11.4%, COC(=O)c1cc(NS(=O)(=O)c2cc(Br)cc3c2N(C(C)=O)CC3)cc(C(=O)OC)c1 -6.02%, Cc1ccc(-n2c(-c3ccco3)nc3c(cnn3-c3ccccc3C)c2=O)cc1 1.12%, Cc1ccc(C(=O)Nc2ccc3oc(-c4ccncc4)nc3c2)c(Cl)c1 43.9%, Cc1cccc(-n2c(=O)c3c(c4cc(C)ccc4n3C)n(CC(=O)Nc3ccc(C)cc3C)c2=O)c1 -1.82%, CCCC(=O)c1ccc(OC(=O)c2c(-c3ccccc3Cl)noc2C)cc1 4.13%, Cc1nnc(NC(=O)C(=O)c2cc(C)n(-c3ccc(C)c(C)c3)c2C)s1 22.5%, COc1ccc(-c2ccc(CCC(=O)O)n2CC(=O)Nc2cccc(C(F)(F)F)c2)cc1 -21.2%, COc1ccc(-c2cn3c(n2)sc2cc(C(=O)Nc4cc(OC)cc(OC)c4)ccc23)cc1 -4.8%, N#Cc1c(NC(=O)CS(=O)(=O)c2ccc(Cl)cc2)sc2c1CCCCC2 7.61%, CCc1ccc(-n2c(=O)c3cccnc3n2CC(=O)Nc2ccccc2C(F)(F)F)cc1 -21.7%, CCOC(=O)c1c(NC(C)=O)c2c3c(sc2n1Cc1nc(-c2cccc(C)c2)oc1C)CCCC3 -16.9%, COc1ccc(N2CCN(C(=O)c3ccc4c(Cl)c5c(nc4c3)CCCC5)CC2)cc1 -9.02%, OCCCc1nc2n(n1)C(c1cccc(Cl)c1)C=C(c1ccccc1)N2 (configuration not stated) 8.94%, COc1ccccc1-c1nc(CNC(=O)Nc2ccccc2)c(C)o1 23%, COc1ccccc1C(=O)NC1=NC(c2ccc(Br)cc2)CC(=O)N1 (configuration not stated) -2.66%, COc1cc(-c2cc(OC)c3c(C)oc(C)c3c(=O)c2)ccc1OC(=O)c1ccccc1F -19.4%, CCOc1ccc(-c2cc(C(=O)NCCc3ccc(Cl)cc3)c3ccccc3n2)cc1 -19.5%, COc1ccc(CN2C(=O)N(c3ccc(C)cc3)C(=O)C2CC(=O)Nc2ccccc2)cc1OC (configuration not stated) -0.161%, O=[N+]([O-])c1cc(-c2nc(-c3ccccc3)no2)ccc1NC1CCCC1 -10.2%, CCCc1cc(C(=O)Nc2c(C)nn(Cc3ccc(Cl)c(Cl)c3)c2C)no1 38%, CCCCCCNC(=O)n1cc(F)c(=O)[nH]c1=O -6.11%, CCc1ccc(C2CC(=O)Oc3c2c(=O)n(C)c2ccccc32)cc1 (configuration not stated) -3.78%, COc1ccc(N(C)C(=O)c2cc(S(=O)(=O)N3CCc4ccccc43)cn2C)c(OC)c1 -14.3%, Cc1cccc(-c2nc(C(N)=O)c3c(n2)n(-c2ccc4c(c2)OCO4)c(=O)n3C)c1 -8.44%, CCCCc1ccc(NC(=O)C2(C)Cc3ccccc3C(=O)O2)cc1 (configuration not stated) 41.2%, COc1ccc(CNC(=O)Cn2nc(C)c3c(C)n(-c4ccccc4)nc3c2=O)cc1OC -25.2%, Cc1ccc(CN(Cc2ccco2)c2cnc(S(C)(=O)=O)nc2C(=O)Nc2ccccc2Br)o1 -22.6%, CCCCC(CC)CN=C(N)NC(N)=NCCCCCCN=C(N)NC(N)=NCC(CC)CCCC (configuration not stated) 1.39%, Cn1c(=O)c2nc(SCC(=O)Nc3ccc(Cl)c(Cl)c3)n(C)c2n(C)c1=O 14.7%, Cc1cc(C)cc(NC(=O)Cn2cc(C(=O)c3ccccc3)c(=O)c3ccc(C)nc32)c1 -10.1%, COC(=O)CN1C(=O)C(O)(CC(=O)c2ccc(F)cc2)c2ccccc21 (configuration not stated) -7.12%, Cc1ccc(-n2c3nc(=O)[nH]c(=O)c-3cc3c(C)nn(-c4ccccc4)c32)c(C)c1 -7.38%, Cc1ccc(Cl)cc1NC(=O)CCS(=O)(=O)c1ccc2c(c1)n(C)c(=O)c(=O)n2C -18.5%, CCN(CC)CCNC(=O)COc1ccc(Cl)cc1 11.7%, Cc1nn(CC(=O)N2CCCCC2)c(=O)c2cc3occc3n12 0.997%, O=C(Nc1ccc(Cl)cc1)c1cc2c(-c3ccccc3)nn(-c3ccccc3)c2s1 -5.41%, CC(NC(=O)C1CCN(S(=O)(=O)c2ccc3nc4c(c(C(=O)O)c3c2)CCCC4)CC1)c1ccccc1 (configuration not stated) -61.6%, CC(C)Cn1cc(NC(=O)NCc2ccccc2Cl)c2ccccc2c1=O -59.4%, COc1cccc(NC(=O)c2ccc3nc(Cc4ccccc4)oc3c2)c1 2.06%, COc1ccc(-c2cc(C(=O)Nc3sc4c(c3C#N)CCCC4)no2)cc1OC 8.99%, O=C(CSc1oc(-c2ccccc2)nc1S(=O)(=O)c1ccccc1)c1ccccc1 -3.21%, Cc1ccc(NC(=O)CCS(=O)(=O)c2cc(Br)cc3c2N(C(=O)C2CC2)CC3)cc1 3.19%, CCc1ccc(-n2c(SCc3cccc(F)c3)nc3[nH]ncc3c2=O)cc1 -18.1%, CC(C)CCN1C(=O)c2ccccc2CC1(C)C(=O)NC1CCCCC1 (configuration not stated) -24.7%, CCC(=O)Nc1ccccc1C(=O)OCc1cc(=O)n2cc(C)sc2n1 -25.5%, COc1ccc(OC)c(NC(=O)Cn2c(CCC(=O)O)ccc2-c2ccccc2)c1 -18.2%, CCCN1CCN(C(=O)Cn2ncc3c4ccccc4n(Cc4cccc(Cl)c4)c3c2=O)CC1 -9.37%, CC1CC(=O)N(CC(=O)Nc2ccc(OC(F)(F)F)cc2)c2ccccc2S1 (configuration not stated) 38%, Cc1ccc(CCNC(=O)c2cc3cc(S(=O)(=O)N4CCCCC4)ccc3n2C)cc1 -15.5%, CCOc1ccc(-n2nc3ccc(NC(=O)c4ccc(C)cc4C)cc3n2)cc1 25.7%, Cc1cccc(N(C)C(=O)c2cc3c(=O)oc4ccc(C)cc4c3s2)c1 -5.35%, O=C(Nc1c(C(=O)N2CCN(c3ccccc3)CC2)oc2ccccc12)c1ccccc1F -9.1%, COC(=O)c1ccc(C(=O)OC)c(NC(=O)c2cnn3c(C(F)F)cc(-c4ccc(C)cc4)nc23)c1 6.32%, COc1ccc(Cl)cc1C(=O)NCCc1ccc(S(=O)(=O)NC(=O)NC2CCCCC2)cc1 18.7% and -4.54%, CCN1CCN(CCCNC(=O)c2cnn(-c3ccc(OC)cc3)c2C2CCN(C(=O)OC(C)(C)C)CC2)CC1 -4.73%, CCN1CCOC(=O)C1CC(=O)Nc1cc(Cl)ccc1C (configuration not stated) 6.85%, CC1=Nc2cc(C(=O)NC3CCCC3)ccc2Sc2ccc(Cl)cc21 -6.99%, CCOC(=O)c1ccc(Nc2nc3ccccc3n3c(C)nnc23)cc1 1.67%, CCOC(=O)c1cccc(NC(=O)CC2C(=O)N(c3ccc(F)cc3)C(=O)N2Cc2cccc(OC)c2)c1 (configuration not stated) -10.7%, CCOc1ccc(-c2noc(CSc3nnc(Cc4ccccc4)n3-c3ccc(F)cc3)n2)cc1 -26.8%, CCOCCc1nn2c(=O)cc(COC(=O)c3ccccc3NC(=O)CC(C)C)nc2s1 -12.5%, COc1ccc(N(C)S(=O)(=O)c2ccc3c(c2)n(C)c(=O)c(=O)n3C)cc1 -1.28%
